In the supplement of paper PMC6657886:

Key:
Assay in all cases: Agar dilution on enriched GC agar; resistance determinants by microarray.
azithromycin = compound: CC[C@H]1OC(=O)[C@H](C)[C@@H](O[C@H]2C[C@@](C)(OC)[C@@H](O)[C@H](C)O2)[C@H](C)[C@@H](O[C@@H]2O[C@H](C)C[C@H](N(C)C)[C@H]2O)[C@](C)(O)C[C@@H](C)CN(C)[C@H](C)[C@@H](O)[C@]1(C)O [azithromycin]
benzylpenicillin = compound: CC1(C)S[C@@H]2[C@H](NC(=O)Cc3ccccc3)C(=O)N2[C@H]1C(=O)O [benzylpenicillin]
tetracycline = compound: CN(C)[C@@H]1C(O)=C(C(N)=O)C(=O)[C@@]2(O)C(O)=C3C(=O)c4c(O)cccc4[C@@](C)(O)[C@H]3C[C@@H]12 [tetracycline]
ceftriaxone = compound: CO/N=C(\C(=O)N[C@@H]1C(=O)N2C(C(=O)O)=C(CSc3nc(=O)c(O)nn3C)CS[C@H]12)c1csc(N)n1 [ceftriaxone]
spectinomycin = compound: CN[C@@H]1[C@H](O)[C@H](NC)[C@H]2O[C@@]3(O)C(=O)C[C@@H](C)O[C@H]3O[C@@H]2[C@H]1O [spectinomycin]

Row | Test System | MIC (azithromycin) | MIC (benzylpenicillin) | MIC (tetracycline) | MIC (ceftriaxone) | MIC (spectinomycin)
1 | Neisseria gonorrhoeae isolate 38 (blaTEM plasmid: no, gyrA: wild type, mtrR promoter: wild type, parC: wild type, penA: wild type, ponA: wild type, porB: wild type, rpsJ: wild type, tetM plasmid: no) | 0.015 µg/mL | ≤ 0.015 µg/mL | 0.25 µg/mL | ≤ 0.002 µg/mL | 32 µg/mL
2 | Neisseria gonorrhoeae isolate 85 (blaTEM plasmid: no, gyrA: Phe91, Asn95, mtrR promoter: -35delA, parC: Arg87, Glu91, penA: ins345Asp, ponA: wild type, porB: Gly120, Gly121, rpsJ: Met57, tetM plasmid: yes) | 0.12 µg/mL | 0.25 µg/mL | 16 µg/mL | 0.008 µg/mL | 32 µg/mL
3 | Neisseria gonorrhoeae isolate 393 (blaTEM plasmid: no, gyrA: Phe91, Asn95, mtrR promoter: -35delA, parC: Arg87, Glu91, penA: ins345Asp, ponA: Pro421, porB: wild type, rpsJ: Met57, tetM plasmid: no) | 1 µg/mL | 1 µg/mL | 1 µg/mL | 0.008 µg/mL | 32 µg/mL
4 | Neisseria gonorrhoeae isolate 130 (blaTEM plasmid: no, gyrA: wild type, mtrR promoter: wild type, parC: wild type, penA: ins345Asp, ponA: wild type, porB: wild type, rpsJ: wild type, tetM plasmid: no) | 0.06 µg/mL | 0.06 µg/mL | 0.25 µg/mL | 0.004 µg/mL | 32 µg/mL
5 | Neisseria gonorrhoeae isolate 392 (blaTEM plasmid: no, gyrA: Phe91, Gly95, mtrR promoter: wild type, parC: Arg87, Glu91, penA: ins345Asp, ponA: Pro421, porB: wild type, rpsJ: Met57, tetM plasmid: no) | 0.015 µg/mL | 0.25 µg/mL | 2 µg/mL | 0.008 µg/mL | 32 µg/mL
6 | Neisseria gonorrhoeae isolate 104 (blaTEM plasmid: yes, gyrA: Phe91, Asp95, mtrR promoter: wild type, parC: Asn 87, Lys91, penA: ins345Asp, ponA: Pro421, porB: Lys 120, Gly121, rpsJ: Met57, tetM plasmid: yes) | 0.03 µg/mL | 16 µg/mL | 32 µg/mL | 0.008 µg/mL | 16 µg/mL
7 | Neisseria gonorrhoeae isolate 368 (blaTEM plasmid: no, gyrA: wild type, mtrR promoter: wild type, parC: wild type, penA: ins345Asp, ponA: wild type, porB: wild type, rpsJ: wild type, tetM plasmid: no) | 0.03 µg/mL | ≤ 0.015 µg/mL | 0.06 µg/mL | 0.008 µg/mL | 32 µg/mL
8 | Neisseria gonorrhoeae isolate 217 (blaTEM plasmid: no, gyrA: wild type, mtrR promoter: wild type, parC: wild type, penA: ins345Asp, ponA: wild type, porB: wild type, rpsJ: wild type, tetM plasmid: no) | 0.008 µg/mL | 0.03 µg/mL | 0.12 µg/mL | ≤ 0.002 µg/mL | 32 µg/mL
9 | Neisseria gonorrhoeae isolate 463 (blaTEM plasmid: no, gyrA: Phe91, Asn95, mtrR promoter: wild type, parC: Arg87, Glu91, penA: ins345Asp, ponA: wild type, porB: Lys120, Asn121, rpsJ: wild type, tetM plasmid: no) | 0.12 µg/mL | 0.25 µg/mL | 1 µg/mL | 0.004 µg/mL | 32 µg/mL
10 | Neisseria gonorrhoeae isolate 124 (blaTEM plasmid: no, gyrA: wild type, mtrR promoter: wild type, parC: wild type, penA: wild type, ponA: wild type, porB: wild type, rpsJ: wild type, tetM plasmid: no) | 0.06 µg/mL | ≤ 0.015 µg/mL | 0.12 µg/mL | ≤ 0.002 µg/mL | 16 µg/mL
11 | Neisseria gonorrhoeae isolate 226 (blaTEM plasmid: no, gyrA: Thr91, Gly95, mtrR promoter: -35delA, parC: wild type, penA: wild type, ponA: wild type, porB: wild type, rpsJ: wild type, tetM plasmid: no) | 0.06 µg/mL | 0.25 µg/mL | 0.12 µg/mL | ≤ 0.002 µg/mL | 16 µg/mL
12 | Neisseria gonorrhoeae isolate 87 (blaTEM plasmid: no, gyrA: Thr91, Gly95, mtrR promoter: wild type, parC: wild type, penA: wild type, ponA: wild type, porB: wild type, rpsJ: wild type, tetM plasmid: yes) | 0.006 µg/mL | 0.06 µg/mL | 16 µg/mL | ≤ 0.002 µg/mL | 32 µg/mL
13 | Neisseria gonorrhoeae isolate 469 (blaTEM plasmid: no, gyrA: Phe91, Asn 95, mtrR promoter: wild type, parC: wild type, penA: ins345Asp, ponA: Pro421, porB: Asp120, Gly121, rpsJ: Met57, tetM plasmid: yes) | 0.06 µg/mL | 1 µg/mL | 16 µg/mL | ≤ 0.002 µg/mL | 16 µg/mL
14 | Neisseria gonorrhoeae isolate 503 (blaTEM plasmid: no, gyrA: wild type, mtrR promoter: wild type, parC: wild type, penA: ins345Asp, ponA: wild type, porB: wild type, rpsJ: Met57, tetM plasmid: no) | 0.03 µg/mL | 0.03 µg/mL | 0.5 µg/mL | ≤ 0.002 µg/mL | 16 µg/mL
15 | Neisseria gonorrhoeae isolate 70 (blaTEM plasmid: no, gyrA: wild type, mtrR promoter: wild type, parC: wild type, penA: ins345Asp, ponA: wild type, porB: wild type, rpsJ: wild type, tetM plasmid: no) | 0.008 µg/mL | 0.25 µg/mL | 0.5 µg/mL | ≤ 0.002 µg/mL | 32 µg/mL
16 | Neisseria gonorrhoeae isolate 17 (blaTEM plasmid: no, gyrA: wild type, mtrR promoter: wild type, parC: wild type, penA: wild type, ponA: wild type, porB: wild type, rpsJ: wild type, tetM plasmid: no) | 0.12 µg/mL | ≤ 0.015 µg/mL | 0.25 µg/mL | ≤ 0.002 µg/mL | 16 µg/mL
17 | Neisseria gonorrhoeae isolate 59 (blaTEM plasmid: no, gyrA: Phe91, Asn95, mtrR promoter: -35delA, parC: Arg87, Glu91, penA: ins345Asp, ponA: Pro421, porB: wild type, rpsJ: Met57, tetM plasmid: no) | 0.25 µg/mL | 0.5 µg/mL | 1 µg/mL | 0.03 µg/mL | 32 µg/mL
18 | Neisseria gonorrhoeae isolate 118 (blaTEM plasmid: no, gyrA: Thr91, Gly95, mtrR promoter: wild type, parC: wild type, penA: wild type, ponA: wild type, porB: Asn120, Asp121, rpsJ: wild type, tetM plasmid: no) | 0.5 µg/mL | 0.06 µg/mL | 2 µg/mL | 0.008 µg/mL | 16 µg/mL
19 | Neisseria gonorrhoeae isolate 159 (blaTEM plasmid: yes, gyrA: Phe91, Asp95, mtrR promoter: wild type, parC: Asn 87, Glu91, penA: ins345Asp, ponA: Pro421, porB: Lys 120, Gly121, rpsJ: Met57, tetM plasmid: no) | 0.03 µg/mL | 8 µg/mL | 0.25 µg/mL | ≤ 0.002 µg/mL | 8 µg/mL
20 | Neisseria gonorrhoeae isolate 53 (blaTEM plasmid: no, gyrA: Phe91, Gly95, mtrR promoter: wild type, parC: Arg87, Glu91, penA: ins345Asp, ponA: Pro421, porB: Asp120, Ala121, rpsJ: Met57, tetM plasmid: no) | 0.015 µg/mL | 0.25 µg/mL | 0.5 µg/mL | 0.015 µg/mL | 32 µg/mL
21 | Neisseria gonorrhoeae isolate 80 (blaTEM plasmid: no, gyrA: wild type, mtrR promoter: wild type, parC: wild type, penA: ins345Asp, ponA: wild type, porB: wild type, rpsJ: wild type, tetM plasmid: no) | 0.12 µg/mL | 0.12 µg/mL | 0.12 µg/mL | 0.008 µg/mL | 16 µg/mL
22 | Neisseria gonorrhoeae isolate 429 (blaTEM plasmid: no, gyrA: wild type, mtrR promoter: wild type, parC: wild type, penA: wild type, ponA: wild type, porB: wild type, rpsJ: wild type, tetM plasmid: no) | 0.12 µg/mL | ≤ 0.015 µg/mL | 0.06 µg/mL | ≤ 0.002 µg/mL | 16 µg/mL
23 | Neisseria gonorrhoeae isolate 263 (blaTEM plasmid: no, gyrA: wild type, mtrR promoter: wild type, parC: wild type, penA: ins345Asp, ponA: wild type, porB: wild type, rpsJ: wild type, tetM plasmid: no) | 0.015 µg/mL | 0.12 µg/mL | 0.25 µg/mL | 0.004 µg/mL | 32 µg/mL
24 | Neisseria gonorrhoeae isolate 454 (blaTEM plasmid: no, gyrA: wild type, mtrR promoter: wild type, parC: Arg87, Glu91, penA: ins345Asp, ponA: Pro421, porB: wild type, rpsJ: Met57, tetM plasmid: no) | 0.12 µg/mL | 0.12 µg/mL | 1 µg/mL | 0.008 µg/mL | 32 µg/mL
25 | Neisseria gonorrhoeae isolate 396 (blaTEM plasmid: no, gyrA: wild type, mtrR promoter: wild type, parC: wild type, penA: wild type, ponA: wild type, porB: wild type, rpsJ: wild type, tetM plasmid: no) | 0.25 µg/mL | ≤ 0.015 µg/mL | 0.25 µg/mL | ≤ 0.002 µg/mL | 16 µg/mL

MIC of clinical N. gonorrhoeae isolates (2015-2017) by agar dilution on GC agar with 1% IsoVitaleX (ranges not stated); higher = less susceptible. No active / inactive call per row; the paper counts benzylpenicillin above 1 and ceftriaxone above 0.125 mg/L as resistant (EUCAST). The method is stated for benzylpenicillin and ceftriaxone and assumed for the other drugs. '<=' is inferred from pile-ups at the end values. Isolates are numbered anew.
